Measurements as given in PubChem BioAssay AID1030 (National Center for Advancing Translational Sciences (NCATS), 2008).
Hit rate of the full screen: of about 220,000 compounds, about 16,000 (7.3%) were called active. Inconclusive results, whose numbers are uncertain, are shown with a selection of clear calls. Calls come from the whole dose curve; as a rule, active = well fitted inhibition curve with a large enough effect (not every such curve was filed as active); inconclusive = small, poorly fitted or top-dose-only effect, or another doubt; inactive = no such curve, though single readings can be large or run the other way. No potency is given beside an inconclusive call; the fits are too rough.
Potency is the fitted concentration of half-maximal effect; tags give direction and shape of the fitted curve.
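Throughout, for activity, negative = inhibition: plate controls were no enzyme wells and a reference inhibitor.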

The compounds below were run against Aldehyde dehydrogenase 1A1 (Homo sapiens) (UniProt P00352) (assay: qHTS Assay for Inhibitors of Aldehyde Dehydrogenase 1 (ALDH1A1)). Conditions: Purified ALDH1A1, NADH fluorescence, propionaldehyde substrate; series mostly up to 75.3 µM; activity, negative = inhibition: at the top concentration.
Chain of UniProt P00352 (P00352 whole entry, looked up): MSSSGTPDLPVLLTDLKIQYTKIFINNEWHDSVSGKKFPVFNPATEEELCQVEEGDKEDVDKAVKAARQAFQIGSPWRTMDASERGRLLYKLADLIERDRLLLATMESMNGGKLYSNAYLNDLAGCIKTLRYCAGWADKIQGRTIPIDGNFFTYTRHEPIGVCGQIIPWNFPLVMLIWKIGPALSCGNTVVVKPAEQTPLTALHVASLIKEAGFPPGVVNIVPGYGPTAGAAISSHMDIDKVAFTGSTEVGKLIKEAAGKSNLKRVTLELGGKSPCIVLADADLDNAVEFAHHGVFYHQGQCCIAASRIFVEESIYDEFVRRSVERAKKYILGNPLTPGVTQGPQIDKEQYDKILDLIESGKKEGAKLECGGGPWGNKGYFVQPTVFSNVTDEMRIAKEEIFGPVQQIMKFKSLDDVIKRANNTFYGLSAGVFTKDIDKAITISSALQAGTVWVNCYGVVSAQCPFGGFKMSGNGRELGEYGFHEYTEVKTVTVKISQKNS
With CCOC(=O)C1=C(N)OC2=C(C(=O)CC(C)(C)C2)C1c1cc(CSc2nnnn2C)cs1 (stereo not given) the Potency was active: 1 µM. In the case of Cc1cc(C)c(-c2cc([C@H](C)O/N=C3/[C@H]4OC4[C@@H](O)[C@H]4[C@H]3CCn3c(=O)n(-c5ccccc5)c(=O)n34)on2)c(C)c1 (stereo not given in full), the Potency is reported as inconclusive [inhibitor, partial curve, poor fit]. With O=C(c1ccc(CNS(=O)(=O)c2cccc(Cl)c2)cc1)N1CCCC1 the “activity, negative = inhibition” value was inactive: -3.31%. For COc1ccc(C(=O)NC(Nc2ccccc2)C(Cl)(Cl)Cl)cc1 (stereo not given), the “activity, negative = inhibition” value was inactive: -2.91%. For COc1ccc(-c2nnc(SCc3c(C)noc3C)o2)cc1, the “activity, negative = inhibition” value was inactive: -4.33%. With COc1ncc2nc(CCc3ccccc3)c(=O)n(C)c2n1 the Potency was inconclusive [inhibitor, partial curve]. In the case of COC(=O)c1cc2c(C)[nH]c(C)c2cc(C(=O)OC)c1=O, the “activity, negative = inhibition” value is reported as inactive: 6.12%. In the case of COC(=O)C1=C(C)NC(=S)N(C(C)=O)C1c1ccccc1 (stereo not given), the Potency is reported as active: 25.1 µM. With CC1(C)CN(c2ccc(-c3ccnc4ncnn34)cc2)C1=O the Potency was inconclusive [inhibitor, partial curve]. In the case of C=C(C)COc1ccc2c(c1)CCC1C2CC[C@]2(C)C(=O)/C(=N/O)CC12 (stereo not given in full), the activity, negative = inhibition is reported as inactive: 7.46% [at 13.5 µM]. COc1ccc(C([O-])=Nc2ccc[n+](-c3nc4ccccc4nc3NS(=O)(=O)c3ccccc3)c2)cc1 was tested, and the Potency was inconclusive [inhibitor, single point]. In the case of Cc1cccc(N(C(=O)CCC(=O)Nc2nccs2)C(C(=O)NC(C)(C)C)c2ccc(O)cc2)c1 (stereo not given), the “activity, negative = inhibition” value is reported as inactive: 5.12%. c1ccc2c(c1)c1c3n2CCNC3CCC1 (stereo not given) was tested, and the Potency was inconclusive [inhibitor, single point]. CCNC(=O)CC1C(=O)N(c2ccc(C)cc2)C(=O)N1CCc1sccc1C (stereo not given) was tested, and the “activity, negative = inhibition” value was inactive: -3.74%. For CCOC(=O)c1[nH]c2c(c1-c1ccc(OC)cc1)C(=O)CC(c1ccc(OC)c(OC)c1)C2 (stereo not given), the Potency was active: 28.2 µM. With Cc1ccc2c(CNCc3ccco3)cc(=O)oc2c1 the Potency was inconclusive [inhibitor, single point]. With Fc1cccc2sc(Nc3nc4cc5c(cc4s3)OCO5)nc12 the Potency was inconclusive [inhibitor, single point]. With COc1ccc(CCCc2n[nH]c(=S)n2C)cc1C the “activity, negative = inhibition” value was inactive: -0.907%. For Cc1cc(C)c2c(n1)nn1c(N3CCN(c4ccccn4)CC3)cc(C)nc21, the Potency was inconclusive [inhibitor, partial curve]. In the case of NS(=O)(=O)c1ccc(NC2=CC(c3ccc([N+](=O)[O-])cc3)N(c3ccc(S(N)(=O)=O)cc3)C2=O)cc1 (stereo not given), the Potency is reported as inconclusive [inhibitor, single point].
